Assay results as given in PubChem BioAssay AID686979 (National Center for Advancing Translational Sciences (NCATS), 2013).
Several values for one entry are separate records, joined by “and”; a condition that tells them apart may be missing. Identical values can stand only once. The campaign covered roughly 420,000 compounds. About 50,000 (12%) were called active. The inconclusive results got no clear call from the source; some entries with a clear call stand among them for comparison. The call rests on the fitted dose curve; in most records, active means well fitted inhibition curve with a large enough effect; inconclusive means small, poorly fitted or top-dose-only effect; inactive means flat fitted curve, though single readings scatter. Potencies of inconclusive entries are left out as doubtful fits.

Assay: qHTS for Inhibitors of human tyrosyl-DNA phosphodiesterase 1 (TDP1): qHTS in cells in presence of CPT; further: nearly all actives have a fitted effect of over 55% in size
Details: chicken DT40 Tdp1-/-;hTDP1 cells + 20 nM CPT, ATP luminescence, 48 h; activity change, negative = growth inhibition: at 46.2 µM (top of the series) unless noted
Procedure, shortened: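 Chicken DT40 Tdp1-/- cells stably complemented with human TDP1 were seeded at 400 cells/well in medium containing 20 nM camptothecin, exposed to pin-transferred compounds, and grown at 37 °C for at least 48 hr. Viability was read as ATP luminescence.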
On the % scale 0 is the no-effect control and ±100 the full control effect; potency means the concentration at half of the fitted maximal effect; tags describe the fitted curve by direction and shape.

Compound	Potency	activity change, negative = growth inhibition
COc1ccc(-c2nn(-c3ccccc3)cc2CN(C)CCn2ccnc2C)c(F)c1	active: 18.4 µM	
C=CCc1ccc(OCCCCNC(C)CC)c(OC)c1 (stereo not drawn)	inconclusive [inhibitor, single point]	
Cc1cccc(C(=O)N=c2c(C#N)cc3c(=O)n4cccc(C)c4nc3n2Cc2ccco2)c1	active: 14.6 µM and active: 20.6 µM	
O=C(NCc1ccco1)c1ccc(=O)oc1		inactive: -12.5%
COc1ccc(NC(=S)NCc2ccc3c(c2)cc(C)n3C)cc1	active: 18.4 µM	
COc1ccc(NC(=O)NCCc2cccc(Cl)c2)cc1OC		inactive: -16.6%
C=CCc1ccccc1OCCCCN1CCCC1	inconclusive [inhibitor, single point]	
Cc1cc(NS(=O)(=O)c2ccc(NC(=O)/C=C/c3ccccc3)cc2)nc(C)n1		inactive: 10.6%
Cc1ccc(NC(=O)c2ncn(CCCN(CCCn3cnc(C(=O)Nc4ccc(C)c(C)c4)n3)Cc3ccc4[nH]ccc4c3)n2)cc1C	inconclusive [inhibitor, single point]	
COC(=O)Nc1ccc(S(=O)(=O)N2CCCCC2)cc1	inconclusive [inhibitor, partial curve]	
CC(/C=C/c1ccccc1)=N/NC(=O)c1cccc(Br)c1	inconclusive [inhibitor, partial curve]	
CCOc1c(C)cc(S(=O)(=O)NCc2cccnc2)c(C)c1C	inconclusive [inhibitor, full curve, poor fit]	
CC(OC(=O)c1cc(Br)ccc1O)C(=O)NC1(C#N)CCCCC1 (stereo not drawn)		inactive: -14.6%
O=C(COC(=O)C1CCC1)NCc1ccc(F)cc1		inactive: -7.23%
COc1ccccc1-c1cnc(C(O)c2c(C)cc(C)cc2C)[nH]1 (stereo not drawn)	inconclusive [inhibitor, single point]	
O=C(CN(C(=O)CCC(=O)Nc1nccs1)c1ccc(F)cc1)NCc1ccccc1		inactive: -4.55%
COc1ccc(/C=N/NC(=O)c2cc(-c3cccn3C)n[nH]2)cc1OC	inconclusive [inhibitor, partial curve]	
CCCCCCN1CCN(C2CN(Cc3cn(Cc4cccc(C(F)(F)F)c4)nn3)S(=O)(=O)C2)CC1 (stereo not drawn)	inconclusive [inhibitor, single point]	
O=C(Nc1ccc(NC(=O)c2ccco2)nc1)c1cccc(F)c1		inactive: 5.83%
C1=C2C[N+]3(CCCC3)CC2Cc2ccc3ccccc3c21 (stereo not drawn)	inconclusive [inhibitor, single point]	
Cc1nn2c(c1-c1ccccc1)N=C(c1ccco1)CC2c1ccccc1 (stereo not drawn)	inconclusive [inhibitor, single point]	
CCN(C(=S)Nc1cccc2ccccc12)c1ccccc1	inconclusive [inhibitor, full curve]	
Cc1ccc(C(=O)Nc2ccc(S(=O)(=O)N3CCOCC3)cc2)cc1C	inconclusive [inhibitor, partial curve, poor fit]	
CC(C)(C)N1C(=O)[C@H]2[C@@H](c3ccc(Br)cc3)N3C(=O)N(c4cccc(Cl)c4)C(=O)[C@@]3(C)[C@H]2C1=O	inconclusive [inhibitor, partial curve]	
COc1ccc(NCC(O)COc2ccc(C(C)(C)C)cc2)cc1 (stereo not drawn)	inconclusive [inhibitor, single point]	

Compound	Potency	activity change, negative = growth inhibition
Cc1cccc(-n2c(C)cc(C(=S)N3CCOCC3)c2C)c1C	active: 14.6 µM	
CC(=O)NC1=C(Nc2ccc(N(C)C)cc2)C(=O)c2ccccc2C1=O	active: 13 µM	
COC(=O)c1cc(S(=O)(=O)NCC2CCN(Cc3ccc(F)cc3)CC2)cn1C	inconclusive [inhibitor, single point]	
CCOc1ccc(NS(=O)(=O)c2ccc(NC(=S)NC(C)=O)cc2)cc1	active: 23.1 µM	
Cc1ccc(OCCn2c(Br)nc3c2c(=O)n(C)c(=O)n3C)cc1	active: 11.6 µM	
CCN(C(=S)Nc1cccnc1)c1cccc2ccccc12		inactive: -29.6%
CCOC(=O)c1c(C)[nH]c(C)c1S(=O)(=O)N1CCC(c2ccccc2)C1 (stereo not drawn)		inactive: -25.1%
Nc1ccccc1C(=O)/C=C/c1ccc2c(c1)OCO2	inconclusive [inhibitor, single point]	
CCOc1ccccc1/C=N/NC(=O)c1nnn(-c2nonc2N)c1CN1CCCCCC1		inactive: -15.7%
CCOC(=O)c1c(NC(=O)CSc2cn(CCNC(=O)c3ccccc3F)c3ccccc23)sc2c1CCC2	inconclusive [inhibitor, single point]	
N#C/C(=C\c1cn(-c2ccccc2)nc1-c1cc2ccccc2o1)c1nc2ccccc2[nH]1	inconclusive [inhibitor, partial curve]	
Fc1ccc(NC(=S)N2CCn3cccc3C2c2cccnc2)cc1 (stereo not drawn)		inactive: -9.87%
CC[C@@H]1CC2=C(C(=O)OC(C)(C)O2)[C@H](c2ccc(Cl)cc2)O1		inactive: -14.4%
CCOc1ccc2c(c1)-c1c(ssc1=S)C(C)(C)N2C(=O)CSC1=NCCS1	inconclusive [inhibitor, single point]	
N#Cc1c(SCc2cccc(Cl)c2)sc(C(=O)c2ccccc2)c1N	inconclusive [inhibitor, partial curve]	
CCOc1ccc(-n2ccc(=O)c(C(=O)O)n2)cc1		inactive: 7.43%
O=C(NCc1cccs1)C1Cc2c(-c3ccc(Cl)cc3)ccnc2O1 (stereo not drawn)	active: 1.46 µM	
Cc1cccn2c(=O)c3cc(C(=O)NCC4CCCO4)c(=N)n(CCc4ccccc4)c3nc12 (stereo not drawn)	active: 16.4 µM	
CC(=O)Nc1cn(-c2ccccc2)nc1-c1ccccc1		inactive: 0.57%
CC1(C)CC(=O)/C(=C(\O)c2ccccc2)C(=NCCc2ccccc2)C1		inactive: -9.01%
COC(=O)[C@@]12C[C@@H](CC(=O)NCc3ccc(OC)c(OC)c3)C(=O)N(Cc3ccco3)C1=CCC(C)(C)C2	inconclusive [inhibitor, single point]	
COc1cccc(CNC(=O)c2ccc(CSc3nc4ccncc4n3Cc3cccc(C)c3)cc2)c1	active: 20.6 µM	
COc1cccc(OC)c1OCCCCN1CCC(Cc2ccccc2)CC1	inconclusive [inhibitor, single point]	
Cc1cc(C)nc(SCc2nnc(SCC(=O)Nc3nc(-c4ccccc4)cs3)n2C)n1	inconclusive [inhibitor, single point]	
Cc1noc(C)c1COc1ccccc1C(=O)N(C)CC(=O)Nc1ccc(Cl)c(Cl)c1	inconclusive [inhibitor, single point]	

Compound	Potency	activity change, negative = growth inhibition
C=CCSc1nc2c(c(=O)[nH]c(=O)n2C)n1Cc1ccccc1	inconclusive [inhibitor, single point]	
COc1ccc(/C=C/C(=O)c2ccc(NC(=O)c3cccs3)cc2)cc1OC	active: 18.4 µM	
Cc1cc(C)nc(S[C@@H]2C[C@@H](C(=O)N3CCCN(C)CC3)N(Cc3cc(F)ccc3F)C2)n1		inactive: -8.25%
Cc1c(C(=O)N2CCCCC2C)sc2ncnc(N3CCc4ccccc4C3)c12 (stereo not drawn)	inconclusive [inhibitor, single point]	
CCOCCc1nn2c(=O)cc(COC(=O)CNC(=O)c3ccc(C(C)(C)C)cc3)nc2s1	active: 16.4 µM	
CCOc1ccc(Nc2nnc(Cc3ccc(OC)cc3)c(=O)[nH]2)cc1		inactive: -4.8%
CC1=C(C(=O)Nc2ccccc2C(=O)NCc2ccccc2)SCCO1	inconclusive [inhibitor, single point]	
Cc1c(Cl)cccc1N=C(N)N=C(N)N	inconclusive [inhibitor, partial curve]	
COc1ccc(NC(=O)CSc2cn(CC(=O)N3CCOCC3)c3ccccc23)cc1OC	inconclusive [inhibitor, single point]	
CC1CCCC(NC(=O)CSc2nnc(N)s2)C1C (stereo not drawn)		inactive: 0.761%
COC(=O)c1ccc(CNC(=O)C2CCC(=O)N(CCCc3ccccc3)C2)cc1 (stereo not drawn)	active: 13 µM	
CC(C)(C)c1ccc(C(=O)N/C(N)=N/c2nc3ccccc3o2)cc1	inconclusive [inhibitor, single point]	
CCOc1ccc(CCN2C(=S)N([C@@H](Cc3ccc(O)cc3)CN3CCCC3CN3C(=S)NC[C@@H]3Cc3ccc(O)cc3)C[C@@H]2CC(C)C)cc1 (stereo partly drawn)	inconclusive [inhibitor, single point]	
C=CCNCCCCOc1ccc(Br)cc1C	inconclusive [inhibitor, single point]	
COc1cccc(N2CCN(C(=O)c3ccc4c(=O)n(CCc5ccccc5)c(=O)[nH]c4c3)CC2)c1	active: 14.6 µM	
COc1nc(OC/C(N)=N/O)nc(N2CCOCC2)n1		inactive: -3.78%
Cc1ccccc1SCC(=O)NCC(c1ccc(F)cc1)N1CCOCC1 (stereo not drawn)	inconclusive [inhibitor, single point]	
CC1=C/C(=N\NC(=O)c2ccccc2)CC1		inactive: 1%
COc1ccc(/C=N/NC(=S)SC)cc1OC	inconclusive [inhibitor, partial curve]	
O=C(COC(=O)CNC(=O)c1ccc([N+](=O)[O-])o1)Nc1ncc(Cl)cc1Cl	inconclusive [inhibitor, single point]	
CCC(C)CCN1C(N(C)C)=NC[C@@H]1Cc1ccccc1 (stereo partly drawn)	active: 11.6 µM	
O=C(C(O)c1ccccc1)N1CCN(S(=O)(=O)c2ccc(OC(F)(F)F)cc2)CC1 (stereo not drawn)		inactive: -5.62%
O=C(COC(=O)Cc1ccccc1F)Nc1ccc(Cl)cn1	inconclusive [inhibitor, single point]	
